According to the RNAGym collection of RNA variant scans (doi:10.7554/elife.90254):
The source gives no read counts; variants with many changes may rest on few reads.

B1: LINE1-full (parent)
chain: UACGUAGGUGGUUUUCCCCUGAUAGUGCUAAGGGGGCCUGGAAGUUUGGACUGGGCAGAGCUCAACACAGCGUGGCAAAGUGGCUGUGGCUAGACUGCCUCUCUGGAUUCCUCGUCACUCAGCAGGGCAUCUCUGAGAGAAAUGCC

Variants of: B1
Assay: self-cleavage, relative activity (ratio to wild type); higher = more cleavage; in vitro, sequencing; the parent is a self-cleaving ribozyme
For U13C U15C A57G G82C A121U U130C, the self-cleavage was 0.66.
In the case of G4A A42U U52C C68U U87C, the self-cleavage is reported as 0.06.
U13C A42G A69U A141G gave a self-cleavage of 0.13.
With C19G U52A A124G the self-cleavage was 0.98.
In the case of G54U A67U A124G, the self-cleavage is reported as 0.04.
Work on A65G C71U A107G A142G yielded a self-cleavage of 0.01.
U14C U62A U81C gave a self-cleavage of 0.14.
With U13C U62C U100C the self-cleavage was 0.11.
With U52C A59G A121G the self-cleavage was 0.
With U20C U85C U104A the self-cleavage was 0.15.
With U14C G53U U104C U115C the self-cleavage was 1.95.
A77G A107G U109C showed a self-cleavage of 1.84.
For U39C G82A U108C, the self-cleavage was 2.39.
For U5C U108C U109A, the self-cleavage was 1.15.
Variant U20C A22U U81C has a self-cleavage of 1.95.
For U12C U23C A24G A129G, the self-cleavage was 0.71.
U5C C17A G27A U87A U109C U115C showed a self-cleavage of 0.11.
Work on A78G C113U C120U yielded a self-cleavage of 1.12.
With U29C A30G G40A A124U A138G A140G A142G the self-cleavage was 1.93.
For U14C U26A A42G A57C U81A, the self-cleavage was 0.09.
Work on U12C A69G U119C U134G yielded a self-cleavage of 1.31.
For A43G A67U A138G, the self-cleavage was 0.09.
Variant C37U U109A U119C A141G U143C has a self-cleavage of 1.26.
Work on A22G U62A C99U U134C U143A yielded a self-cleavage of 0.12.
Variant U12G U15C A77G A121C G139A has a self-cleavage of 1.7.
Work on A64G U85G U87A U119C yielded a self-cleavage of 0.17.
In the case of U73C U81G U100C, the self-cleavage is reported as 0.
With U115C U119C A124U the self-cleavage was 1.93.
In the case of G49A U100C A141G, the self-cleavage is reported as 1.24.
With U26G A69G U96C the self-cleavage was 0.
With U26A U87C U108C the self-cleavage was 0.13.
With A22G U23A U29A U47C U102A the self-cleavage was 0.92.
With U39C U62C A65G C123U the self-cleavage was 0.2.
For U12C C17U U45C U52C A65G A138C, the self-cleavage was 0.
U12C U15C U85C gave a self-cleavage of 0.
Variant U15C U26C A43G A92G has a self-cleavage of 0.
In the case of U5C U29C U109A, the self-cleavage is reported as 1.23.
In the case of A57U A67G A94G, the self-cleavage is reported as 0.
U9A U62C A141G gave a self-cleavage of 0.11.
With U14C G74A A94G the self-cleavage was 0.
U5C U96A A121U gave a self-cleavage of 0.4.
Variant A22G A79U G126A has a self-cleavage of 1.44.
Variant U13A A59G A67U has a self-cleavage of 0.
Variant A43G A78U U85C U91C has a self-cleavage of 0.17.
For A6U U15C U132G, the self-cleavage was 0.66.
In the case of C38A U73C U81C U115C, the self-cleavage is reported as 0.
C38U G74A A78U gave a self-cleavage of 1.79.
A2G A69G U102C showed a self-cleavage of 0.42.
Variant G33U U46A A124U has a self-cleavage of 1.44.
Work on U12C U119C A138G A142G yielded a self-cleavage of 2.14.
For A59G U87A U96A U112A, the self-cleavage was 0.04.
Work on A92G G97A U108A yielded a self-cleavage of 0.13.
G4A A94G U100C showed a self-cleavage of 0.51.
A30G U115A C128G gave a self-cleavage of 1.36.
Work on U12C U85A U143C yielded a self-cleavage of 0.01.
With A22G A141G A142U the self-cleavage was 1.23.
U14G A78G A142G gave a self-cleavage of 1.1.
U14C G86A U132C gave a self-cleavage of 0.15.
For A2G U23C C51U A67U G86A U132C, the self-cleavage was 0.15.
With U29C A67U U96A A141C the self-cleavage was 0.
U39C A77U A138U gave a self-cleavage of 1.49.
Work on U13C U52A U85C G105A yielded a self-cleavage of 0.15.
Variant U15C G40U U46A has a self-cleavage of 0.95.
Variant U20A U47A A65G has a self-cleavage of 0.07.
Variant U13A A22G U52C A59U U132C has a self-cleavage of 0.
With U87C U112C A138G the self-cleavage was 0.53.
A6G U45A A59U gave a self-cleavage of 0.48.
With G32A C120U A138G the self-cleavage was 1.4.
In the case of C16U G35A U47C A79G, the self-cleavage is reported as 0.89.
U20C A22U A77C A79U A136G gave a self-cleavage of 1.53.
C28U U109C U119A U132C gave a self-cleavage of 1.09.
In the case of U46C U52C A57U C63A C113U, the self-cleavage is reported as 0.02.
U20C A77G G114A U119C gave a self-cleavage of 2.96.
Work on U13C U29C A30G yielded a self-cleavage of 1.53.
Variant A65G C90U U100C has a self-cleavage of 0.09.
With A2G U52A A64U A92G A141G the self-cleavage was 0.45.
In the case of C19U U20C U45A U132C, the self-cleavage is reported as 0.8.
Variant U5C U100C U115C has a self-cleavage of 1.23.
In the case of A67G A78G U87A, the self-cleavage is reported as 0.
Work on G40A G44A C120U yielded a self-cleavage of 0.88.
In the case of U15C A65G A124C C133A, the self-cleavage is reported as 0.38.
U14C C18U G72A A142G showed a self-cleavage of 1.9.
G36U A57G A79U showed a self-cleavage of 0.85.
With U45C A78G A94G C128U the self-cleavage was 0.09.
